What all share (experiment): protein-binding microarray (PBM)
Details in all cases: PBM: ~300 nM protein, 6 mM HEPES pH 7.8, 80 mM KCl, 0.5 mM EDTA, 0.5 mM EGTA, 6% glycerol, 35 ng/ul poly-dIdC, 1% milk, 1 h, room temperature; Ap Aiptasia and Nv Nematostella (sea anemones) / Co Capsaspora / Aq Amphimedon (sponge) / Dm Drosophila / Hu human; RHD is the Rel homology domain; high values mean tight binding; most listed sequences are background and not binding sites; double strand, one strand shown

The target in one experiment is T1, GST-Ap-NF-kB RHD (UniProt A0A913YAJ5).
T1 sequence: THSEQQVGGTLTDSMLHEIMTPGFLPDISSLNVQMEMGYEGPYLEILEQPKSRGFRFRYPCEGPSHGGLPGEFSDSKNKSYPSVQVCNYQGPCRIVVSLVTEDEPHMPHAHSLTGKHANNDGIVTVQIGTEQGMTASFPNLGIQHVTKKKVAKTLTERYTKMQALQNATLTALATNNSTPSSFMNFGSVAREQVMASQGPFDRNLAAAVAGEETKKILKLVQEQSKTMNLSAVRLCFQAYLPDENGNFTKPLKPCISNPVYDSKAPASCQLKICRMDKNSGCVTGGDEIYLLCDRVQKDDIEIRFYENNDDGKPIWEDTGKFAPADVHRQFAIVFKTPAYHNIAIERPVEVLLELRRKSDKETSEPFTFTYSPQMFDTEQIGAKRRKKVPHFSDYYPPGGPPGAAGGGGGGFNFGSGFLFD

Experiment [1] concerns the target T2, GST-Nv-NF-kB (Cys allele) (UniProt E5G601).
T2 sequence: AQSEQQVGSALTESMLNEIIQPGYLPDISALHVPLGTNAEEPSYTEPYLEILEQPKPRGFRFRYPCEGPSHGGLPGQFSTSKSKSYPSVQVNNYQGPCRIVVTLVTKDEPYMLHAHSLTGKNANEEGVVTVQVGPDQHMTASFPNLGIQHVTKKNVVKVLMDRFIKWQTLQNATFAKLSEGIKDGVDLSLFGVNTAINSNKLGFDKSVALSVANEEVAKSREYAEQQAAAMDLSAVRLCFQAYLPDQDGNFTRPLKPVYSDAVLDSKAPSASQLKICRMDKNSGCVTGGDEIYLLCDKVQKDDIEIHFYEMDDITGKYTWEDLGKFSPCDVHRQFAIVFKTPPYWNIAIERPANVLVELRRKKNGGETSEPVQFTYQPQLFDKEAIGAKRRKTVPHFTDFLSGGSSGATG

A further experiment deals with T3, GST-Co-NF-kB (UniProt F1ARL5).
T3 sequence: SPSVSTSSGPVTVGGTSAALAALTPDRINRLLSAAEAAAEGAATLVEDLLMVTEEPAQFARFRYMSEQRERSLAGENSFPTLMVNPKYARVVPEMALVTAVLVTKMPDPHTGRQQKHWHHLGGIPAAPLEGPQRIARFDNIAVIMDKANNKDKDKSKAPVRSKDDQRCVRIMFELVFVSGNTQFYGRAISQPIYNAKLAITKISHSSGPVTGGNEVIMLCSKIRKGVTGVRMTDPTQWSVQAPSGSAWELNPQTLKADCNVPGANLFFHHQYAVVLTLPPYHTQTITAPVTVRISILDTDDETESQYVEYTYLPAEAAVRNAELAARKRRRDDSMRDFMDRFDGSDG

The next experiment has as its target T4, GST-Dm-Relish (UniProt Q94527).
T4 sequence: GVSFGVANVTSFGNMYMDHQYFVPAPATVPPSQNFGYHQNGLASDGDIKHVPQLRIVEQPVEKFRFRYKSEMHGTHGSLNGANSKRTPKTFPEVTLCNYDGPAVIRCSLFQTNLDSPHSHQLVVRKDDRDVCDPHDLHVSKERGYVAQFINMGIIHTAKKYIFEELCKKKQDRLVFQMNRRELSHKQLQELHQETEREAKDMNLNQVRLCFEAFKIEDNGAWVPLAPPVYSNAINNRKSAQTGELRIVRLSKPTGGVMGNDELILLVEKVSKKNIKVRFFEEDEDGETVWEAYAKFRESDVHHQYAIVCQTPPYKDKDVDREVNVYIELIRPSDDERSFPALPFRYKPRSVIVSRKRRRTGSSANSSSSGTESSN

Another experiment concerns the target T5, GST-Aq-NF-kB (UniProt A9Y5G7).
T5 sequence: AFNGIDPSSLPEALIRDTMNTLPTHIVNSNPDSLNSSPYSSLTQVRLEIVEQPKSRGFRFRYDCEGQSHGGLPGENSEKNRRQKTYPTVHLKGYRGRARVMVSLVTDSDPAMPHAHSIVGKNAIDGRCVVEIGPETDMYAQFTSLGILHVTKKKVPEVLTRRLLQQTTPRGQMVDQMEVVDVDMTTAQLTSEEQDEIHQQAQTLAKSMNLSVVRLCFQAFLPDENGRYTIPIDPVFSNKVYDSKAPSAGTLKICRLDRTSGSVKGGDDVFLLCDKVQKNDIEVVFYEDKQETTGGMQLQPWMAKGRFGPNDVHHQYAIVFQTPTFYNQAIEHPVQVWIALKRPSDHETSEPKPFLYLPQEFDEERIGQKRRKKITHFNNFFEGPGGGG

The values below come from publication PMC5700166.

This is a selection; strong and weak results do not stand in their true shares. The list includes weakly bound sequences.

As for “CCGATTAACATCAACTCTGTGTGTGATGTTAATCGGGTCTTGATTCGCTTGACGCTGCTG”, the binding signal in the experiment with GST-Ap-NF-kB RHD is -0.368 z-score; in experiment [1], -0.368 z-score; in the experiment with GST-Co-NF-kB, 0.573 z-score; with GST-Dm-Relish, 0.402 z-score; with GST-Aq-NF-kB, -0.208 z-score.

With “CCGATTAACATCATTCTTTTAGATGATGTTAATCGGGTCTTGATTCGCTTGACGCTGCTG”, the binding signal is -0.982 z-score with GST-Ap-NF-kB RHD; -0.0832 z-score in experiment [1]; -0.662 z-score with GST-Co-NF-kB; -0.463 z-score in the experiment with GST-Dm-Relish; -0.833 z-score with GST-Aq-NF-kB.

As to “CCGATTAACATCAGCTCTCCGGATGATGTTAATCGGGTCTTGATTCGCTTGACGCTGCTG”, the binding signal is -0.758 z-score in the experiment with GST-Ap-NF-kB RHD; -0.388 z-score in experiment [1]; -0.839 z-score in the experiment with GST-Co-NF-kB; -1.08 z-score in the experiment with GST-Dm-Relish; -0.631 z-score with GST-Aq-NF-kB.

For “CCGATTAACATCATACGAGCAGTTGATGTTAATCGGGTCTTGATTCGCTTGACGCTGCTG”, the binding signal is -0.191 z-score with GST-Ap-NF-kB RHD; -0.162 z-score in experiment [1]; 0.16 z-score with GST-Co-NF-kB; -0.652 z-score with GST-Dm-Relish; -0.468 z-score in the experiment with GST-Aq-NF-kB.

For the sequence “CCGATTAACATCATCGATTCGTATGATGTTAATCGGGTCTTGATTCGCTTGACGCTGCTG”, the binding signal was -1.15 z-score with GST-Ap-NF-kB RHD; -0.249 z-score in experiment [1]; -0.571 z-score with GST-Co-NF-kB; -0.913 z-score in the experiment with GST-Dm-Relish; -0.56 z-score in the experiment with GST-Aq-NF-kB.

“CCGATTAACATCATACGAAACTGTGATGTTAATCGGGTCTTGATTCGCTTGACGCTGCTG”: the binding signal is -0.0112 z-score with GST-Ap-NF-kB RHD; -1.26 z-score in experiment [1]; -0.0714 z-score with GST-Co-NF-kB; -0.198 z-score with GST-Dm-Relish; -0.421 z-score with GST-Aq-NF-kB.

In the case of “CCGATTAACATCACGGGTCGGATTGATGTTAATCGGGTCTTGATTCGCTTGACGCTGCTG”, the binding signal came out at 0.0354 z-score in the experiment with GST-Ap-NF-kB RHD; 0.479 z-score in experiment [1]; 0.65 z-score in the experiment with GST-Co-NF-kB; 0.254 z-score with GST-Dm-Relish; 0.115 z-score with GST-Aq-NF-kB.

In the case of “CCGATTAACATCATAGAGCATACTGATGTTAATCGGGTCTTGATTCGCTTGACGCTGCTG”, the binding signal was 0.0208 z-score with GST-Ap-NF-kB RHD; 0.229 z-score in experiment [1]; 0.397 z-score with GST-Co-NF-kB; -0.504 z-score in the experiment with GST-Dm-Relish; -0.358 z-score in the experiment with GST-Aq-NF-kB.

Turning to “CCGATTAACATCAAGTCTAGGGATGATGTTAATCGGGTCTTGATTCGCTTGACGCTGCTG”, the binding signal in the experiment with GST-Ap-NF-kB RHD is 0.956 z-score; in experiment [1], -0.218 z-score; with GST-Co-NF-kB it was 0.00917 z-score; with GST-Dm-Relish it was -0.915 z-score; in the experiment with GST-Aq-NF-kB it was 0.291 z-score.

On to “CCGATTAACATCAAAAAGACTAATGATGTTAATCGGGTCTTGATTCGCTTGACGCTGCTG”, for which the binding signal in the experiment with GST-Ap-NF-kB RHD is -0.978 z-score; in experiment [1], -0.648 z-score; in the experiment with GST-Co-NF-kB it was -0.821 z-score; with GST-Dm-Relish, -0.147 z-score; in the experiment with GST-Aq-NF-kB, -0.292 z-score.

Consider “CCGATTAACATCAAATCCTCCTATGATGTTAATCGGGTCTTGATTCGCTTGACGCTGCTG”, for which the binding signal with GST-Ap-NF-kB RHD is 0.149 z-score; in experiment [1], 0.326 z-score; with GST-Co-NF-kB it was 0.128 z-score; with GST-Dm-Relish, -0.43 z-score; with GST-Aq-NF-kB, -0.218 z-score.

On to “CCGATTAACATCAGGGCAATCCATGATGTTAATCGGGTCTTGATTCGCTTGACGCTGCTG”, for which the binding signal was 0.255 z-score in the experiment with GST-Ap-NF-kB RHD; -0.234 z-score in experiment [1]; -0.0643 z-score in the experiment with GST-Co-NF-kB; 0.0971 z-score with GST-Dm-Relish; 0.979 z-score with GST-Aq-NF-kB.

On to “CCGATTAACATCAGAAAAAGGCATGATGTTAATCGGGTCTTGATTCGCTTGACGCTGCTG”, for which the binding signal with GST-Ap-NF-kB RHD was -0.115 z-score; in experiment [1] it was 0.0931 z-score; in the experiment with GST-Co-NF-kB, 0.0662 z-score; in the experiment with GST-Dm-Relish, -0.192 z-score; with GST-Aq-NF-kB, 0.0484 z-score.

For the sequence “CCGATTAACATCAGGCCAGCCACTGATGTTAATCGGGTCTTGATTCGCTTGACGCTGCTG”, the binding signal was -0.288 z-score with GST-Ap-NF-kB RHD; 0.524 z-score in experiment [1]; -0.343 z-score with GST-Co-NF-kB; 0.345 z-score with GST-Dm-Relish; -0.444 z-score with GST-Aq-NF-kB.
